# Measurements as given in PubChem BioAssay AID485294 (National Center for Advancing Translational Sciences (NCATS), 2010).
# The campaign covered roughly 370,000 compounds. About 150 (0.041%) were called active. This list was built around the results that the source calls inconclusive (neither active nor inactive); the mix of calls is not that of the screen. Calls follow the shape of the dose curve; as a rule, active = well fitted inhibition curve with a large enough effect; inconclusive = small, poorly fitted or top-dose-only effect; inactive = flat fitted curve, though single readings scatter. Potencies of inconclusive entries are left out as doubtful fits.
# Target: Beta-lactamase (Escherichia coli (strain K12)) (UniProt P00811)
# Assay: qHTS Inhibitors of AmpC Beta-Lactamase (assay with detergent); also: nearly all actives have a fitted effect of over 25% in size;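 as to activity change, negative = inhibition: 0% = no-compound wells and -100% = no-enzyme wells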
# Settings: AmpC hydrolysis of nitrocefin, absorbance 480 nm, 0.01% Triton; activity change, negative = inhibition: at 114 µM (top of the series)
# Procedure, shortened: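 20 mM phosphate pH 7.0 + 0.01% (detergent screen) or 0.0001% Triton X-100; 5.3 nM AmpC reagent; cpd preinc 15 min RT; nitrocefin (800 uM stock) to start; A480 q20 s × 4 min; Activity was normalised to no-enzyme and no-compound control wells.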
# Potency is read from the fitted curve at half-maximal effect; tags tell the direction and shape of the fitted curve.
# Sequence of UniProt P00811 (P00811 whole entry, looked up): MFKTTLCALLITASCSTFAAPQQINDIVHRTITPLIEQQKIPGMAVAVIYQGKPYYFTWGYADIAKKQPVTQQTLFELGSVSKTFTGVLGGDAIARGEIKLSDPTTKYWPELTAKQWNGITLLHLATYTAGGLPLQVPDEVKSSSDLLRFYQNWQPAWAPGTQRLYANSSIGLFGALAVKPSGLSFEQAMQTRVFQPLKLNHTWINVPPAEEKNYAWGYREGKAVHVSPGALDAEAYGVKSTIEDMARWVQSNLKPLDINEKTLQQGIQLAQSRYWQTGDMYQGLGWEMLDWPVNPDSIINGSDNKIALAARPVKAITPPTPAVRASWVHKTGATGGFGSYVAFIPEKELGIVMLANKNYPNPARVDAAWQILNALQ
Compound,Potency,"activity change, negative = inhibition"
Cc1ccc(S(=O)(=O)N2CCN(C3CCC(c4ccccc4)CC3)CC2)cc1 (stereo not drawn),"inconclusive [inhibitor, full curve]",–
COc1cccc(C(=O)NNS(=O)(=O)c2ccc(C)cc2)c1,"inconclusive [inhibitor, partial curve, poor fit]",–
O=C(COC(=O)c1cccc(S(=O)(=O)NCc2ccccc2)c1)c1ccccc1,–,inactive: -6.52%
Cc1scc(C(=O)N2CCN(c3ccc(Cl)cc3)CC2)c1C,–,inactive: 1.07%
CN(Cc1ccccc1)CC(O)COc1ccc(CNCc2cccnc2)cc1 (stereo not drawn),"inconclusive [inhibitor, single point]",–
Cc1ccc(-n2nnnc2SCC(=O)Nc2ccccc2-c2ccccc2)cc1C,"inconclusive [inhibitor, single point]",–
Cc1ccc(C)c(NC(=O)CN(C)S(=O)(=O)c2cccc3nsnc23)c1,–,inactive: 5.47%
O=C(NCC1OCCc2ccccc21)c1ccc(NC(=O)c2ccc(Cl)cc2Cl)cc1 (stereo not drawn),"inconclusive [inhibitor, partial curve]",–
COC(=O)Cc1csc(NCc2ccccc2)n1,–,inactive: -9.62%
O=C(O)c1cc(/C=C/c2ccc(N3CCOCC3)c([N+](=O)[O-])c2)nc2ccccc12,"inconclusive [inhibitor, single point]",–
CC(=O)c1ccc(N2CCN(C(=O)c3cc4c(-c5ccccc5F)nn(C)c4s3)CC2)cc1,"inconclusive [inhibitor, partial curve, poor fit]",–
CC1(C)CC(=O)C(C=NCCc2ccccn2)=C(O)C1,"inconclusive [inhibitor, full curve, poor fit]",–
O=C(NCCc1ccccc1)C(=O)NCc1ccncc1,–,inactive: -0.877%
O=C(NCCc1cccs1)C1CC(c2ccccc2[N+](=O)[O-])=NO1 (stereo not drawn),"inconclusive [inhibitor, partial curve]",–
CC1=C(C(=O)OCc2ccccc2)C(c2ccc(C(C)(C)C)cc2)NC(=O)N1CCCCCC(=O)O (stereo not drawn),"inconclusive [inhibitor, full curve, poor fit]",–
CCOC(=O)c1cccc(NC(=O)Cn2cc3c(n2)CCC(C)C3)c1 (stereo not drawn),"inconclusive [inhibitor, full curve, poor fit]",–
O=C(CSc1nnc(-c2ccco2)n1Cc1ccccc1)c1ccc(F)cc1,–,inactive: -14.1%
COc1ccc(CCNC(=O)CS(=O)(=O)c2cn(CC(=O)N(C(C)C)C(C)C)c3ccccc23)cc1OC,–,inactive: 1.4%
COc1ccc(C(=O)C[n+]2cccc3cc(C)ccc32)cc1,–,inactive: 3.54%
O=S(=O)(NCC(c1ccc2c(c1)OCO2)N1CCOCC1)c1ccc(Br)cc1 (stereo not drawn),–,inactive: 0%
CC(=O)Oc1ccc(N2C(=O)C3C4C=CC(O4)C3C2=O)cc1 (stereo not drawn),–,inactive: 5.59%
COc1cc2c(cc1NC(=S)NC(=O)/C=C/c1ccco1)oc1ccccc12,"inconclusive [inhibitor, full curve, poor fit]",–
COC(=O)/C=C1/S/C(=N/NC(=O)c2ccccc2OC)NC1=O,–,inactive: -1.13%
CC(=O)Nc1cccc(NC(=O)c2ccccc2OCc2ccccc2)c1,"inconclusive [inhibitor, full curve, poor fit]",–
CC(=O)c1cccc(NC(=O)C2CCN(S(=O)(=O)c3ccc4c(c3)CCCN4C(C)=O)CC2)c1,–,inactive: 0.826%

Compound,Potency,"activity change, negative = inhibition"
Cn1cccc1C1C(C#N)=C(N)OC2=C1C(=O)CC(C)(C)C2 (stereo not drawn),–,inactive: 3.49%
CCCc1cc(C(=O)Nc2ccc(F)cc2F)no1,"inconclusive [inhibitor, full curve, poor fit]",–
CSc1ccc(-c2nc(CSCC(=O)NCCCN3CCOCC3)c(C)o2)cc1,"inconclusive [inhibitor, full curve, poor fit]",–
c1ccc(SCc2nc3ccccc3[nH]2)nc1,"inconclusive [inhibitor, partial curve]",–
CC(=O)Nc1ccc(NC(=O)C(C)Sc2n[nH]c(-c3cccs3)n2)cc1 (stereo not drawn),"inconclusive [inhibitor, partial curve, poor fit]",–
O=c1c2c3nc4ccccc4nc3n(-c3ccc4c(c3)OCCO4)c2ncn1C1CCCC1,–,inactive: -8.12%
Fc1ccc(CNc2nc3ccccc3n3nnnc23)cc1,"inconclusive [inhibitor, full curve, poor fit]",–
CC(C)c1ccc(NC(=O)C2CCCCC2C(=O)O)cc1 (stereo not drawn),"inconclusive [inhibitor, full curve, poor fit]",–
N#C/C(=N\Nc1ccc(Cl)cc1)C(=N)N1CCCCC1,–,inactive: 9.71%
CCOC(=O)Cn1c(=O)c2c(nc3n2CCN3c2ccc(C)cc2)n(C)c1=O,"inconclusive [inhibitor, partial curve, poor fit]",–
O=C(NNC1=C(C(=O)C(F)(F)F)CCC1)c1cccc(O)c1,"inconclusive [inhibitor, partial curve, poor fit]",–
CCOc1ccc(C(=O)NC(=S)N2CCN(c3ccc(C(F)(F)F)cc3[N+](=O)[O-])CC2)cc1,"inconclusive [inhibitor, full curve, poor fit]",–
CCN(C(=O)CSc1nc2ccccc2o1)c1c(N)n(Cc2ccccc2)c(=O)[nH]c1=O,"inconclusive [inhibitor, full curve, poor fit]",–
COc1ccc(N2CCN(C(=S)Nc3cc(C)cc(C)c3)CC2)cc1,"inconclusive [inhibitor, full curve, poor fit]",–
CCOC(=O)c1cccc(NC(=O)CSc2nnc(CNc3ccc(C)cc3)n2CC)c1,"inconclusive [inhibitor, full curve, poor fit]",–
Cc1ccc(-n2ncc3c2CCCC3NC(=O)CCc2cnccn2)cc1C (stereo not drawn),"inconclusive [inhibitor, full curve]",–
Cc1cccc(C(=O)OCc2cc(=O)n3ccsc3n2)c1,–,inactive: 10.1%
Cc1c(NC(=O)CSc2nc3ccccc3[nH]2)c(=O)n(-c2ccccc2)n1C,"inconclusive [inhibitor, full curve, poor fit]",–
O=C(Nc1ccccc1O)c1cccc(NC(=O)c2ccco2)c1,"inconclusive [inhibitor, full curve]",–
CCOC(=O)c1cc2c(cn1)[nH]c1ccccc12,–,inactive: -6.24%
CCn1c(=O)c2c(n3cnnc13)-c1ccccc1CC21CCCCC1,"inconclusive [inhibitor, full curve, poor fit]",–
O=C(O)c1cccc(-c2ccc(/C=N/NC(=O)c3cccnc3)o2)c1,–,inactive: -8.24%
CC(=O)Nc1ccc(NC(=O)C2CCN(c3ccc(C(F)(F)F)cn3)CC2)cc1,–,inactive: 5.73%
N#CC(C(=O)c1ccccc1Cl)=C1SCCCS1,"inconclusive [inhibitor, partial curve]",–
Cc1ccc2cccc(Oc3ncnc4scc(-c5ccccc5)c34)c2n1,–,inactive: 0.561%

Compound,Potency,"activity change, negative = inhibition"
COc1ccc(-c2nc(C)ncc2-c2ccccc2)c(O)c1,–,inactive: -5.63%
O=C(N/N=C/c1c[nH]c2ccccc12)c1ccn(Cc2ccc(Cl)cc2Cl)n1,–,inactive: -0.769%
O=S(=O)(NC1CCCCCCC1)OCC(Cl)(Cl)Cl,–,inactive: -6.25%
CCCCN(C)C(=O)CCC(=O)Nc1ccc2nc(N3CCOCC3)cc(C)c2c1,–,inactive: -6.29%
C/C(=C\c1ccccc1)C(=O)NC1CCSC1=O (stereo not drawn),–,inactive: -6.58%
O=C(/C=C/c1cccc([N+](=O)[O-])c1)Nc1cccc(NC(=O)c2ccco2)c1,"inconclusive [inhibitor, single point]",–
COc1cccc(-n2ccnc2SCC(=O)Nc2c(C)cc(C)cc2C)c1,–,inactive: 0.7%
CCn1c(=NC(=O)C2COc3ccccc3O2)sc2c(C)ccc(OC)c21 (stereo not drawn),–,inactive: -4.93%
CN1C2CCC1CC(NC(=O)c1cccc(C(F)(F)F)c1)C2 (stereo not drawn),"inconclusive [inhibitor, partial curve]",–
CCCCNC(=O)c1ccc2c(c1)N(Cc1ccc(F)cc1)C(=O)c1ccccc1S2=O (stereo not drawn),–,inactive: -1.77%
COc1ccccc1S(=O)Cc1ccc(C(=O)NCCc2ccc(Cl)cc2)o1 (stereo not drawn),–,inactive: -11.4%
COC(=O)Nc1ncc(CN2CCC(c3ccccc3)CC2)s1,"inconclusive [inhibitor, full curve, poor fit]",–
CCOc1ccc(N2CC(NC(=O)c3ccco3)CC2=O)cc1 (stereo not drawn),–,inactive: 2.77%
CC1CCCCC1NC(=O)c1ccc(S(=O)(=O)N2CCCC2)cc1 (stereo not drawn),"inconclusive [inhibitor, full curve, poor fit]",–
C=Cn1cc[n+](CC(=O)c2ccc(-c3ccccc3)cc2)c1,–,inactive: -8.64%
CCn1c(=O)cc(OCC(=O)NCc2ccc(C)o2)c2ccccc21,–,inactive: -5.03%
CN(C)S(=O)(=O)n1cc(/C=C(\NC(=O)c2ccccc2Cl)C(=O)N2CCOCC2)c2ccccc21,"inconclusive [inhibitor, full curve, poor fit]",–
CCOc1cccc2cc(C(=O)N3CCc4ccccc4C3)c(=O)oc12,"inconclusive [inhibitor, full curve, poor fit]",–
COC(=O)C1=C(C)NC(=O)/C1=C\c1cc(C)n(-c2ccccc2F)c1C,–,inactive: -4.13%
C=CCNCCOCCOc1ccc(C)cc1Br,"inconclusive [inhibitor, single point]",–
O=C(NCc1n[nH]c(=S)n1-c1ccc(Br)cc1)c1cccs1,"inconclusive [inhibitor, partial curve]",–
Cc1ccc(-n2c(C)cc(-c3csc(N)n3)c2C)cc1,"inconclusive [inhibitor, full curve]",–
COc1cccc2cc(C(C)N(CCCN3CCOCC3)C(=S)Nc3ccc(C)c(C)c3)oc12 (stereo not drawn),"inconclusive [inhibitor, partial curve]",–
